We go through 43 molecules from publication PMC4336329 (PLoS ONE, 2015).

Out of some 310,000 compounds screened, about 14,000 (4.5%) showed an effect of 50% or more. Effects have a minus sign here. The list shows a part of the results.
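Also: peak tail current of the secondary pulse compared with the same well before compound.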

The target of this test is human ether-à-go-go-related gene (hERG) potassium channel (human, UniProt Q12809). Nature of the test: primary screen, population patch clamp on CHO cells stably expressing hERG.
human ether-à-go-go-related gene (hERG) potassium channel, sequence (Q12809 whole entry, looked up): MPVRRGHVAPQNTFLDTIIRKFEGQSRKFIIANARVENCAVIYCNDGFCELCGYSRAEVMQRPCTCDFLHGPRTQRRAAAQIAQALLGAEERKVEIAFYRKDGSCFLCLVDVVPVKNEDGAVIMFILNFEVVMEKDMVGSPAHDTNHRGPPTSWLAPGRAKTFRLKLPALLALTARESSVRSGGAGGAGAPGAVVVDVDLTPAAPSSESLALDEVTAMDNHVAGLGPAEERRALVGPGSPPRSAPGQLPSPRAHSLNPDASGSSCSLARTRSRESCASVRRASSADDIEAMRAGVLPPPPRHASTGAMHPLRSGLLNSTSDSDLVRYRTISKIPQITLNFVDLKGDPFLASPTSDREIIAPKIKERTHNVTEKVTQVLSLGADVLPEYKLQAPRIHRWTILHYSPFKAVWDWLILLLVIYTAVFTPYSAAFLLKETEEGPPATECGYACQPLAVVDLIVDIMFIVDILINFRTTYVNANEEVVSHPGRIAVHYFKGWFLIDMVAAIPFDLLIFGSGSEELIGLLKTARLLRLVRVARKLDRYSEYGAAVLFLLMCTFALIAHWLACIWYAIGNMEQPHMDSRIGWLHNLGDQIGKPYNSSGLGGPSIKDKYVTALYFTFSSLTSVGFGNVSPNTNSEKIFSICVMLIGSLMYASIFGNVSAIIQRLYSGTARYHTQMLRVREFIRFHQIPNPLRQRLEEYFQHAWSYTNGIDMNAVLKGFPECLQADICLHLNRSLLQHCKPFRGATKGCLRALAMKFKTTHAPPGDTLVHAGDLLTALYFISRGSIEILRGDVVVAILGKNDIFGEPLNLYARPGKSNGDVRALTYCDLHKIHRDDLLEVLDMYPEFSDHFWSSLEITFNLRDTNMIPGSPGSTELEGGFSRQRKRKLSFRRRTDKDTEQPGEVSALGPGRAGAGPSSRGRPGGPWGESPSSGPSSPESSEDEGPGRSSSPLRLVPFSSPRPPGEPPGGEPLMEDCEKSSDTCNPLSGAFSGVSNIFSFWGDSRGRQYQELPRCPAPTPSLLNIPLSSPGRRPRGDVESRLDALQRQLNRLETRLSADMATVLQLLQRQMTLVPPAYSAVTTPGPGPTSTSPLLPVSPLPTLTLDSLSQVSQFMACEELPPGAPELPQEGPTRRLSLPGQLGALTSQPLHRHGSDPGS
In the case of `O=C(CSc1nc(-c2ccccc2)c(-c2ccccc2)o1)N1CCOCC1`, the “hERG current change (%, negative = inhibition) at 10uM” value was -49.8%.

With `Cc1cc(C)n(Cc2ccc(C(=O)N/N=C/c3ccc(-c4ccc([N+](=O)[O-])cc4)o3)o2)n1`, the “hERG current change (%, negative = inhibition) at 10uM” value is given as -2.21%.

For the molecule `CC(C)NCC(O)COC1CCC(C(C)(C)C)CC1.Cl` (stereo not shown), the “hERG current change (%, negative = inhibition) at 10uM” value is 8.06%.

Take `O=C(COC(=O)c1ccc2c(c1)OCO2)Nc1ccccc1`: the “hERG current change (%, negative = inhibition) at 10uM” value is on record as 14.4%.

Consider `Cc1ncc(CO)c2cc(-c3nnc(Nc4ccc5c(c4)OCO5)s3)c(=O)oc12`, for which the “hERG current change (%, negative = inhibition) at 10uM” value was 1.63%.

For the molecule `Cc1ncsc1C(=O)N1CCCC(CNS(=O)(=O)c2cccs2)C1` (stereo not shown), the “hERG current change (%, negative = inhibition) at 10uM” value is given as 24.5%.

On to `COc1ccccc1CC(=O)NCc1csc(-c2cccs2)n1`, for which the “hERG current change (%, negative = inhibition) at 10uM” value is given as -7.19%.

Turning to `CCN1CCCC1CNC(=O)c1ccc2c(c1)NC(=O)/C(=C\c1ccc(C)cc1)S2` (stereo not shown), the “hERG current change (%, negative = inhibition) at 10uM” value is recorded as -42.4%.

As for `N#Cc1ccccc1S(=O)(=O)N1CCN(CC(=O)NCC2(N3CCOCC3)CCCCC2)CC1`, the “hERG current change (%, negative = inhibition) at 10uM” value is recorded as -27.3%.

In the case of `CC1CCc2sc(C(=O)Nc3ccc(C(N)=O)cc3)cc2C1` (stereo not shown), the “hERG current change (%, negative = inhibition) at 10uM” value is on record as 10.5%.

Consider `Cc1onc(-c2c(Cl)cccc2Cl)c1C(=O)Nc1ccc(Cl)cn1`, for which the “hERG current change (%, negative = inhibition) at 10uM” value was -10.2%.

As for `O=[N+]([O-])c1cccc(NC(=S)NCCc2ccccc2)c1`, the “hERG current change (%, negative = inhibition) at 10uM” value is listed as -40.3%.

For `Cc1ccc(C(=O)N(CN2CCCC2=O)c2ccc(F)cc2)cc1`, the “hERG current change (%, negative = inhibition) at 10uM” value worked out at 0.181%.

With `O=C(N/N=C/c1ccccc1O)C(=O)Nc1ccccn1`, the “hERG current change (%, negative = inhibition) at 10uM” value was 19.8%.

Regarding `CCc1cc(=O)oc2cc(C)cc(OCC(=O)NCCCN3CCOCC3)c12`, the “hERG current change (%, negative = inhibition) at 10uM” value is listed as -11.1%.

Take `Cc1cc(SCC(=O)c2ccc(O)c(O)c2)nc2ccccc12`: the “hERG current change (%, negative = inhibition) at 10uM” value was 18.2%.

Take `c1ccc2sc(-c3ccc4c(c3)OCO4)nc2c1`: the “hERG current change (%, negative = inhibition) at 10uM” value is listed as -3.16%.

Turning to `O=C(COc1ccc2c(-c3ccccc3)cc(=O)oc2c1)NCCN1CCOCC1`, the “hERG current change (%, negative = inhibition) at 10uM” value is -14%.

Turning to `O=C(CC(=O)c1ccccc1)Nc1ccccc1`, the “hERG current change (%, negative = inhibition) at 10uM” value is listed as 6.57%.

With `CC1(OC(=O)C2CCCC2)C(=O)C=C2C=C(c3ccsc3)N(Cc3ccc4c(c3)OCO4)C=C2C1=O` (stereo not shown), the “hERG current change (%, negative = inhibition) at 10uM” value was -79.6%.

In the case of `Cc1c(C(c2ccc(O)cc2)c2c(C)n(C)n(-c3ccccc3)c2=O)c(=O)n(-c2ccccc2)n1C`, the “hERG current change (%, negative = inhibition) at 10uM” value is reported as -7.93%.

For the molecule `CCOC(=O)N1CCc2c(sc(NC(=O)CN3CCOCC3)c2C#N)C1`, the “hERG current change (%, negative = inhibition) at 10uM” value was -1.09%.

Turning to `CC(C)(C)NC(=O)c1ccc(Sc2ccccc2)c([N+](=O)[O-])c1`, the “hERG current change (%, negative = inhibition) at 10uM” value is -10.2%.

As to `O=C(Cc1ccc(-n2cccc2)cc1)NCc1ccccc1Cl`, the “hERG current change (%, negative = inhibition) at 10uM” value was 8.35%.

`O=C(Cn1cnc2c(nnn2Cc2ccc(F)cc2)c1=O)N1CCCc2ccccc21`: the “hERG current change (%, negative = inhibition) at 10uM” value was found to be 0.368%.

`Cc1ccc(C)c(OCc2ccc(C(=O)Nc3ccc([N+](=O)[O-])cn3)o2)c1`: the “hERG current change (%, negative = inhibition) at 10uM” value stood at 16.3%.

As for `O=C(CCNS(=O)(=O)c1cccc2nsnc12)NCc1ccccc1Cl`, the “hERG current change (%, negative = inhibition) at 10uM” value is -2.94%.

With `CN1CCN(C(=O)C2=C[C@H](c3csc4ccccc34)C[C@H](OCCCCO)O2)CC1`, the “hERG current change (%, negative = inhibition) at 10uM” value is recorded as -12.7%.

On to `Cc1cccc(C(=O)NC(=S)NCc2cccnc2)c1`, for which the “hERG current change (%, negative = inhibition) at 10uM” value is on record as -0.89%.

In the case of `CCN1CCN(c2nc(Nc3ccc(C)c(C)c3)nc(N)c2[N+](=O)[O-])CC1`, the “hERG current change (%, negative = inhibition) at 10uM” value was -75%.

As for `Cc1cccc(C)c1NC(=O)CCCSc1nnc(-c2ccc(Cl)cc2)n1-c1ccccc1`, the “hERG current change (%, negative = inhibition) at 10uM” value is -3.49%.

`CC(C)CCn1cnc2c(cnn2-c2ccc(F)cc2)c1=O`: the “hERG current change (%, negative = inhibition) at 10uM” value was -3.95%.

In the case of `COc1cccc(-c2nnc3sc(-c4ccc(C)cc4)nn23)c1`, the “hERG current change (%, negative = inhibition) at 10uM” value is reported as -10.2%.

`Cc1cc(NC(=O)c2cccc(S(=O)(=O)N3CCCCCC3)c2)n(-c2ccccn2)n1`: the “hERG current change (%, negative = inhibition) at 10uM” value is 13.4%.

On to `Cc1nn(-c2ccccc2)c(C)c1C(=O)NCc1ccc(F)cc1`, for which the “hERG current change (%, negative = inhibition) at 10uM” value is -53.2%.

With `CCn1cc(C(=O)NCC(=O)NC(C)(C)CO)c(=O)c2cc3c(cc21)OCO3`, the “hERG current change (%, negative = inhibition) at 10uM” value turned out to be 11.9%.

In the case of `CCCCNC(=S)N=Nc1c(O)[nH]c2ccccc12`, the “hERG current change (%, negative = inhibition) at 10uM” value is 4.13%.

For `Cl.c1ccc(CN2CCOCC2)cc1`, the “hERG current change (%, negative = inhibition) at 10uM” value was 22%.

As for `O=C(Nc1ccccc1N1CCOCC1)C1=NN(c2c(F)c(F)cc(F)c2F)C(=O)CC1`, the “hERG current change (%, negative = inhibition) at 10uM” value was 15.5%.

Regarding `O=C(CNc1ccc2ccccc2c1)N/N=C/c1ccc(OC(=O)/C=C/c2ccco2)cc1`, the “hERG current change (%, negative = inhibition) at 10uM” value was determined as 22.7%.

With `O=C(CN1CCN(Cc2ccccc2)CC1)Nc1ccc(-n2cnnn2)cc1`, the “hERG current change (%, negative = inhibition) at 10uM” value is on record as -48%.

`CN1CCN(C2CC(=O)N(Cc3ccc(N4CCCC4=O)cc3)C2=O)CC1` (stereo not shown): the “hERG current change (%, negative = inhibition) at 10uM” value is recorded as 6.9%.

As to `C[C@H](NC(=O)c1ccc(Cl)c(S(=O)(=O)N2CCOCC2)c1)c1nc2ccccc2[nH]1`, the “hERG current change (%, negative = inhibition) at 10uM” value is -9.68%.
